# Measured values: the supplement of paper PMC5499739
# The full ranking holds about 16,000 sequences; the median of “Z-score” is about -0.37, and the highest 2% start at about 3.2. The list shows a part of the results.
# Tested on: RBM10 RRM1-ZnF (GST-tagged construct)
# Experiment: RNAcompete 7-mer binding Z-score; higher = stronger binding preference
# Method in brief: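 In 1 ml Hepes pH 7.8 buffer with KCl, NaCl, glycerol, DTT, BSA and glutathione Sepharose beads, GST-tagged RBM10 constructs (20 pmol) were incubated for 30 min at 4°C with 1.5 nmol of a designed pool of 241 399 RNAs up to 41 nt. Four 2-min washes at 4°C followed, and bound RNA was detected by microarray hybridisation. Heptamer motif enrichment was expressed as a one-sided Z-score across probes containing each motif.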
row,Sequence,RNAcompete 7-mer binding Z-score
1,CGUCGGU,-0.0707
2,UUGAAGC,-0.318
3,AACUAAU,-0.412
4,UUGAUUC,-0.792
5,CUCUACG,-0.662
6,UGGGUUG,3.04
7,GGGAUAC,2.5
8,UCUUGGU,-0.116
9,AGCGCCU,-0.613
10,AGACCUC,-1.03
11,GAGGCAA,0.784
12,AUGAAAA,-0.0772
13,GACCGAU,-0.694
14,UAACGUU,-0.545
15,UCAAUCU,-0.678
16,UCACGUA,-0.327
17,GCACUUC,-0.483
18,GGAGACC,0.859
19,CUAGGAG,0.608
20,UGACUAA,-0.334
21,AAAGAUC,-0.396
22,AAGACCA,-0.366
23,GUCAAUC,-0.379

row,Sequence,RNAcompete 7-mer binding Z-score
1,AUCCACC,-0.461
2,AGGUGCU,0.852
3,CCUCCAG,-0.623
4,ACCUCGU,-0.867
5,CAAGCCA,-0.717
6,CUGUGAG,0.0625
7,CCGUGAG,-0.441
8,UAUAUAA,-0.519
9,AGCAUUG,-0.0804
10,UAUUAAA,-0.487
11,UAGUUAG,0.326
12,GCCAUAC,-0.668
13,ACAACGA,-0.175
14,CUAUGAU,-0.532
15,GCGGCUA,0.183
16,UCCUCGA,-0.824
17,CUACCAG,-0.724
18,AACCGUC,-0.668
19,CUCUGAG,-0.574
20,CCUUUAG,-0.854
21,CAAGCUC,-0.698
22,CAGCCAU,-0.831
23,UAAUAGG,0.872

row,Sequence,RNAcompete 7-mer binding Z-score
1,GAAAGCC,-0.48
2,UAAUUAG,-0.383
3,CACUGCG,-0.0967
4,CGACUGA,-0.448
5,CCUGGUU,-0.487
6,CGUCAAC,-0.561
7,UCACGCA,-0.571
8,UCAUGAC,-0.584
9,CGCCGCC,-0.467
10,UUUGGCG,0.209
11,AACGGAU,1.58
12,GCGAGGG,3.54
13,CCAUGAA,-0.467
14,CUAAUGU,-0.529
15,GGCUGCU,0.183
16,CACCGAC,-0.409
17,AAUUAAA,-0.565
18,UAGUGCU,-0.292
19,GAGAACU,-0.158
20,UCUAUCC,-0.831
21,UGAAACC,-0.668
22,GUAAUCC,-0.431
23,GGUUAGA,2.79

row,Sequence,RNAcompete 7-mer binding Z-score
1,GGGACUU,1.03
2,CGGGUCG,1.54
3,UAAUCAC,-0.448
4,ACGUUCA,-0.733
5,CGCGUAC,-0.659
6,UUGAGCA,-0.155
7,CCCGGCA,-0.467
8,CACCAUC,-0.678
9,AUAAAAG,0.0788
10,GUAGAAG,2.54
11,GCCUGGA,-0.246
12,AACCACG,-0.516
13,GCCUAAG,-0.383
14,AAGCCUG,-0.629
15,CGCAAGA,-0.464
16,UGCGAAA,-0.0934
17,GCGAACA,-0.0707
18,CAGCGGG,2.5
19,CGCACGG,0.0885
20,CUAACGG,0.235
21,CUUGUGU,-0.594
22,CCGUAGG,0.508
23,CAUCGUC,-0.681

row,Sequence,RNAcompete 7-mer binding Z-score
1,CGAAAAA,-0.431
2,CUCUAAG,-0.532
3,CAGGCUA,0.244
4,CGGCAAU,-0.22
5,AAGGCUA,0.566
6,GAGCACA,-0.253
7,UGCAUCC,-0.759
8,UGUCGAU,-0.519
9,UCACAUG,-0.405
10,UACUCAC,-0.704
11,UGGGUUA,3.28
12,GCGGGAU,2.2
13,AACACUA,-0.496
14,AGAUAUG,0.686
15,AAAACCU,-0.743
16,UAGUCCC,-0.594
17,UCCUAUU,-0.867
18,AUUUUGA,-0.714
19,CUUUUAG,-0.688
20,UUAGCGU,-0.324
21,UCAUAGU,-0.402
22,CCUCCGA,-0.662
23,AGUCAAG,0.147

row,Sequence,RNAcompete 7-mer binding Z-score
1,UGUAGGC,0.553
2,GAUUUUC,-0.737
3,CCCCGGG,0.647
4,CACGGCC,-0.655
5,GGACCAU,-0.373
6,UUGAUAC,-0.35
7,ACAAAUC,-0.662
8,AGCACAC,-0.642
9,UCAUUCU,-0.662
10,CCCGUCG,-0.467
11,ACAUUCU,-0.876
12,CCCGCUC,-0.552
13,CCCAAGA,-0.568
14,CAGCCCA,-0.379
15,AACAAAC,-0.435
16,UUGUCGC,-0.558
17,AGCCGUG,-0.444
18,AGUGAGG,2.62
19,AAAGUUC,-0.578
20,AACGGAA,1.44
21,UUCUGCG,-0.594
22,UUUCUUC,-0.779
23,UUGGCUA,-0.0414

row,Sequence,RNAcompete 7-mer binding Z-score
1,UCGGGGA,1.6
2,UUCUCCA,-0.785
3,GUAGAUC,0.0398
4,UAAUUGG,0.706
5,CUCAAUA,-0.802
6,GUGCCCC,0.03
7,AAGUGGC,0.664
8,AUAGCUC,-0.493
9,GAACCGA,-0.24
10,GUUUGUU,0.017
11,CCGUAUG,-0.529
12,GUUCAAA,-0.399
13,GGGCCAU,-0.0902
14,UACUCCC,-0.785
15,UUCCAUG,-0.756
16,GGCGCCC,-0.34
17,CAGAUGA,-0.0187
18,AUUAGCG,-0.0902
19,CGAUUAA,-0.48
20,GUGCGUA,0.511
21,GCGUACA,-0.0609
22,GGUCACC,0.108
23,UAGGCCA,-0.162

row,Sequence,RNAcompete 7-mer binding Z-score
1,CGAAGGA,1.62
2,AUGUCAC,-0.509
3,AUCACGG,0.03
4,UGAGGGC,2.27
5,AGAGCGA,0.586
6,UCCGACC,-0.776
7,GGUCCCC,0.043
8,GUUGGGU,3.12
9,GCUAACC,-0.646
10,ACAAUGC,-0.461
11,CGUGCUC,-0.584
12,CAGGCUC,-0.318
13,GAGAGUC,0.225
14,ACCCCAU,-0.662
15,AAUACGG,0.94
16,CAAUCGA,-0.477
17,GCCGCCG,-0.36
18,AAGGCAG,1.74
19,GGAGGAG,2.93
20,CGAAUAU,-0.685
21,GGUAUGA,2.19
22,AGUAAGC,0.0105
23,CUUCAUA,-0.847
